Assay results from the supplement of paper PMC12217912.
The other results are listed elsewhere or left out. Sequences were assembled here from the parent chain. Values near 0.05 are background.

B1: TEV protease; numbered along this chain (parent)
chain: MGESLFKGPRDYNPISSSICHLTNESDGHTTSLYGIGFGPFIITNKHLFRRNNGTLVVQSLHGVFKVKDTTTLQQHLVDGRDMIIIRMPKDFPPFPQKLKFREPQREERICLVTTNFQTKSMSSMVSDTSCTFPSGDGIFWKHWIQTKDGQCGSPLVSTRDGFIVGIHSASNFTNTNNYFTSVPKNFMELLTNQEAQQWVSGWRLNADSVLWGGHKVFMVKPEEPFQPVKEATQL

Variants of: B1
Experiment: raw area under fraction-flipped curve 0-4 h after induction (AUC4h, not background-subtracted), DNA-recorder readout of cleavage of the substrate (dimensionless); higher = more cleavage of the substrate by the protease variant
Conditions: temperature: 34 °C; time window: 0-4 h after rhamnose induction
Protocol: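 In vivo DNA recorder in E. coli TOP10(DE3) ΔrhaA at 34 °C. Each TEVp single-site mutant (parent TEVp 0) is paired with a single-site variant of the 7-mer TEVs (canonical ENLYFQ|S). The substrate sits between flexible linkers in a Bxb1-sfGFP-TEVs-SsrA fusion, so cleavage stabilises Bxb1 and speeds flipping of a recombination array, read by NGS. The value is the raw area under the fraction-flipped curve over 0-4 h after rhamnose induction (AUC4h), with ≥20 reads per time point. It is not background-subtracted; inactive controls average about 0.047.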
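Note: Bxb1 expression induced with 0.2% (w/v) L-rhamnose at OD600 near 0.5, cultures sampled hourly, flipped fraction per protease–substrate barcode pair counted by paired-end Illumina sequencing.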

Variant | area with substrate ENLAFQS | area with substrate ENLCFQS | area with substrate ENLDFQS | area with substrate ENLFFQS | area with substrate ENLHFQS | area with substrate ENLMFQS | area with substrate ENLNFQS | area with substrate ENLQFQS | area with substrate ENLRFQS | area with substrate ENLGFQS | area with substrate ENLKFQS | area with substrate ENLPFQS | area with substrate ENLLFQS | area with substrate ENLSFQS | area with substrate ENLVFQS | area with substrate ENLWFQS | area with substrate ENLIFQS | area with substrate ENLTFQS | area with substrate ENLEFQS
A170H | 0.0652 | 0.0434 | 0.0579 | 0.054 | 0.0566 | 0.061 | 0.0538 | 0.061 | 0.0757 | – | – | – | – | – | – | – | – | – | –
W141E | 0.0321 | 0.0657 | 0.0608 | – | 0.0675 | – | – | – | 0.0475 | 0.0586 | 0.0458 | 0.043 | – | – | – | – | – | – | –
T174N | 0.0637 | 0.0072 | 0.0748 | 0.0885 | 0.0738 | – | 0.0771 | – | 0.0691 | 0.0567 | 0.0459 | – | 0.0823 | 0.0751 | 0.089 | 0.0895 | – | – | –
F133I | 0.0942 | – | 0.0684 | 0.0899 | 0.0661 | – | 0.0675 | – | – | – | 0.0846 | – | – | – | 0.0934 | – | 0.0895 | – | –
F133R | 0.0641 | – | 0.0657 | – | – | 0.0804 | 0.0845 | 0.0986 | 0.127 | – | 0.0877 | – | 0.0711 | 0.0692 | 0.0868 | – | – | 0.0853 | –
S154T | 0.0558 | – | – | – | 0.0791 | – | 0.0547 | – | 0.0798 | – | 0.0781 | – | 0.084 | – | – | 0.0795 | – | – | –
S154K | 0.0625 | 0.0787 | 0.0922 | 0.0673 | 0.0666 | 0.0402 | 0.058 | – | 0.0672 | – | 0.0745 | 0.0571 | 0.077 | 0.0538 | – | – | – | – | –
H143F | 0.064 | 0.0608 | 0.0729 | 0.106 | – | – | 0.0589 | – | – | – | – | 0.0639 | – | – | – | – | – | – | 0.0683
S130M | 0.0704 | 0.0699 | 0.0647 | 0.0566 | 0.0688 | – | 0.0592 | 0.0604 | – | – | 0.0803 | 0.0543 | 0.0877 | 0.0651 | – | 0.0534 | 0.0897 | – | –
S130K | 0.0556 | 0.0529 | 0.0553 | 0.0755 | – | – | – | 0.0435 | – | – | 0.0749 | 0.07 | 0.0812 | 0.061 | 0.0802 | – | 0.0726 | – | 0.0562
S130H | 0.0636 | – | 0.0573 | 0.0782 | 0.0832 | – | 0.0666 | 0.0662 | – | – | 0.0941 | – | 0.0719 | 0.0649 | – | 0.0612 | 0.0749 | – | –
D149L | 0.0549 | – | 0.0545 | 0.035 | 0.0427 | 0.0896 | 0.0644 | – | – | – | 0.0713 | 0.0605 | – | 0.051 | 0.0727 | 0.0609 | 0.0552 | 0.075 | –
N172G | 0.0645 | – | 0.0604 | 0.0939 | 0.0613 | – | 0.0547 | – | – | – | 0.0655 | 0.0682 | – | 0.0691 | – | – | 0.0814 | – | –
F140Y | 0.0536 | – | – | 0.0669 | – | – | 0.0455 | – | – | – | 0.0766 | 0.0658 | – | 0.0665 | – | – | 0.0601 | – | 0.0678
I145M | 0.0729 | 0.0781 | 0.0533 | 0.0761 | 0.06 | – | 0.0499 | 0.0583 | 0.0787 | – | – | 0.0533 | 0.0688 | 0.0596 | – | – | 0.0722 | – | 0.0696
M125I | 0.0825 | – | 0.0613 | 0.0823 | – | – | 0.0851 | 0.068 | – | – | 0.0492 | 0.0712 | – | – | – | – | – | – | –

Variant | area with substrate ENLAFQS | area with substrate ENLCFQS | area with substrate ENLDFQS | area with substrate ENLFFQS | area with substrate ENLHFQS | area with substrate ENLMFQS | area with substrate ENLNFQS | area with substrate ENLQFQS | area with substrate ENLRFQS | area with substrate ENLGFQS | area with substrate ENLKFQS | area with substrate ENLPFQS | area with substrate ENLLFQS | area with substrate ENLSFQS | area with substrate ENLVFQS | area with substrate ENLWFQS | area with substrate ENLIFQS | area with substrate ENLTFQS | area with substrate ENLEFQS
M125H | 0.0717 | 0.0735 | 0.0646 | 0.0736 | 0.0888 | – | 0.0681 | 0.0765 | 0.0705 | – | – | 0.0744 | 0.0504 | 0.0653 | 0.0943 | – | 0.0864 | – | 0.0737
G138K | 0.0623 | – | 0.0688 | 0.0531 | – | – | 0.0587 | 0.0767 | 0.0599 | – | 0.0727 | 0.0698 | 0.0694 | 0.0628 | – | 0.0613 | – | – | –
T119Y | 0.0594 | – | 0.0552 | 0.089 | – | – | 0.0759 | 0.117 | 0.0751 | 0.0687 | 0.0767 | – | 0.0909 | 0.0493 | 0.0592 | 0.0677 | – | – | 0.0986
T119V | 0.0603 | 0.0661 | 0.0514 | 0.0758 | 0.0715 | 0.0718 | 0.0597 | – | – | – | 0.0757 | – | – | 0.057 | – | 0.0902 | – | – | –
S135C | 0.0609 | 0.049 | 0.0566 | 0.0694 | 0.0597 | – | 0.0619 | 0.0556 | 0.0635 | – | 0.0659 | 0.0699 | 0.0541 | 0.0747 | 0.0564 | 0.0545 | 0.068 | – | –
S135W | 0.0575 | – | 0.0622 | 0.0583 | 0.0453 | – | 0.0604 | 0.0546 | 0.0407 | – | 0.0712 | – | 0.0567 | 0.0602 | 0.0601 | 0.0566 | 0.0621 | 0.0645 | 0.0496
G153K | 0.0508 | 0.0626 | 0.0303 | 0.06 | 0.0529 | 0.0421 | – | – | – | – | – | – | 0.053 | – | – | 0.0931 | – | – | –
D161M | 0.0587 | – | 0.0396 | 0.0497 | 0.0533 | – | 0.0601 | – | 0.0599 | – | 0.0642 | 0.0513 | – | – | 0.0533 | – | 0.0401 | 0.0611 | –
V157Q | 0.0701 | – | – | 0.0771 | – | – | 0.061 | 0.0658 | 0.0536 | – | 0.0668 | 0.0498 | 0.0632 | 0.0615 | 0.068 | 0.0667 | 0.0829 | – | 0.0585
S169E | 0.0501 | – | – | 0.0677 | 0.058 | 0.0622 | 0.0736 | 0.0412 | 0.0662 | 0.0336 | 0.0615 | – | – | 0.107 | – | 0.0389 | 0.0506 | – | 0.0584
S169P | 0.0708 | – | 0.0513 | 0.0649 | 0.0626 | – | 0.0577 | – | – | 0.0548 | 0.0659 | 0.0612 | – | 0.0693 | 0.0754 | 0.036 | 0.0681 | – | 0.0587
I167C | 0.0573 | – | – | 0.0818 | 0.0773 | 0.0688 | 0.0885 | 0.0699 | 0.0647 | – | 0.0788 | 0.0749 | 0.0579 | 0.0489 | – | – | 0.0735 | – | –
I139R | 0.0599 | – | 0.0584 | 0.0593 | 0.085 | 0.0431 | 0.0645 | 0.0891 | 0.0748 | 0.0325 | 0.068 | 0.0592 | 0.0601 | 0.0613 | 0.0602 | 0.0552 | – | – | 0.0638
T159D | 0.0615 | – | 0.0603 | 0.0629 | – | – | – | – | – | – | – | 0.0595 | – | – | – | – | – | – | –
T159S | 0.0522 | – | 0.0585 | 0.0927 | – | – | – | – | – | 0.0631 | 0.0604 | – | 0.0428 | – | – | 0.0574 | – | – | –
T159N | 0.0614 | – | 0.107 | – | – | – | – | – | 0.0599 | – | 0.0764 | – | – | 0.0769 | – | – | – | – | 0.0603
